The results in this text go back to PubChem BioAssay AID1159614 (National Center for Advancing Translational Sciences (NCATS), 2016).

Structures are written as SMILES. The whole screen tested about 45,000 compounds, of which about 65 (0.1%) were called active. The call rests on the fitted dose curve; in most records, active means well fitted activation curve with a large enough effect; inconclusive means small, poorly fitted or top-dose-only effect; inactive means no such curve, though single readings can be large or run the other way. The list shows a part of the results.

In this test the target is Galactocerebrosidase (Homo sapiens) (UniProt P54803). Put plainly: A Novel Cell-Based Assay to Identify Small Molecules for B -Galactocerebrosidase. Further: 0% is about no effect; nearly all actives have a fitted effect of over 65% in size. The conditions noted are these: 145M-Twi-hGALC-G270D cells (Twitcher mouse brain line with human GALC G270D), HMU-beta-Gal fluorescence, 48 h; series mostly up to 57.5 µM; activation: at the top concentration. The gist of the method: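 Live 145M-Twi cells (Twitcher mouse brain-derived, GALC-null) stably expressing human GALC-G270D, with a wild-type GALC line, were compound-treated. Residual GALC activity was then read as fluorescence from 0.1 mM final HMU-β-gal at pH 5.2; higher signal means activation.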
Chain of UniProt P54803 (P54803 whole entry, looked up): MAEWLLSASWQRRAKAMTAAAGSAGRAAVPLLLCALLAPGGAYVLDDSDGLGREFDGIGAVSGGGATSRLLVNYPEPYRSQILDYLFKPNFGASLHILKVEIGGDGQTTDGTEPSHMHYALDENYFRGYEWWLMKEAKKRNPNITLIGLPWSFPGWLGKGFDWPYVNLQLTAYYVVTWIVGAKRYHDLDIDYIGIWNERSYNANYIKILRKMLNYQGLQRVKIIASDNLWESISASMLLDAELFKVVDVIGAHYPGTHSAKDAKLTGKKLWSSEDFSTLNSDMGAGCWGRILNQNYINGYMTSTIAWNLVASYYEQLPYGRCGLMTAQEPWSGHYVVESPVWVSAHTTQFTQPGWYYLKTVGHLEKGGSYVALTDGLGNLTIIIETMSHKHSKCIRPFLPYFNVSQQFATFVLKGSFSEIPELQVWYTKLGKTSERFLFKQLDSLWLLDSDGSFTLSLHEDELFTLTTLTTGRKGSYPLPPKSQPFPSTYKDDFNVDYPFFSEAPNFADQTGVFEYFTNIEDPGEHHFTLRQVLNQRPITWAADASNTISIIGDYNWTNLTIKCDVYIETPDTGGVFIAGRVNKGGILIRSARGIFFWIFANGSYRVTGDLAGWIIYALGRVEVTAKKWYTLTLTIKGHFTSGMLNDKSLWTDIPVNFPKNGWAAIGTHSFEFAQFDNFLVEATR
For the molecule `CCOC(=O)c1ccc(N2C(=O)c3n[nH]c(C)c3C2c2ccc(OCC)cc2)cc1` (centres undefined), the “activation” value was inactive: -2.14%.
To `CCOC(=O)Cn1c(=O)n(CC2CCCO2)c2nc(-c3ccc(C(C)C)cc3)nc(C(N)=O)c21` (centres undefined) belongs inactive: -7.92%; to `CCCSc1nnc2[nH]c(=O)cc(C)n12`, inactive: -16.6%.
`O=C(Nc1nnc(S(=O)(=O)Nc2ccccc2)s1)C1CCCCC1`: the “activation” value is inactive: -17.4%.
To `NC(=O)CCCCC1CCSS1` (centres undefined) belongs inactive: -25.7%; to `Cc1ccccc1NC(=O)Cn1c(=O)n(Cc2ccccc2)c(=O)c2sc3ccccc3c21`, inactive: -5.8%.
As for `CCOc1ccc(C(=O)NCC(c2ccco2)S(=O)(=O)c2cccs2)cc1` (centres undefined), the figure is inactive: -20.2%.
For the molecule `COC(=O)c1ccc(C(=O)OC)c(NC(=O)c2cnn3c(C(F)F)cc(-c4ccccc4)nc23)c1`, the “activation” value was inactive: -10.6%.
Take `CCN(Cc1ccccc1)C(=O)c1nn(-c2ccc(OC)cc2)c(=O)c2c1c1ccccc1n2C`: the “activation” value was inactive: -0.717%.
Consider `Cc1ccccc1-c1nn2c(=O)cc(CN3CCN(S(=O)(=O)c4ccc(Cl)cc4)CC3)nc2s1`, for which the “activation” value was inactive: 4.34%.
As for `CCOc1ccc(OCC)c(NC(=O)CCc2nc3cccnc3n2-c2ccccc2)c1`, the figure is inactive: -13.1%.
As for `COc1ccccc1N1CCN(C(=O)CSc2n[nH]c(-c3ccccc3Cl)n2)CC1`, the figure is inactive: -11%.
As for `O=C(NCC(c1ccc(Cl)cc1)N1CCCCC1)c1ccccc1F` (centres undefined), the figure is inactive: -28.3%; as for `CCC1CN(C(=O)Nc2ccc(Br)cc2F)c2ccccc2S1` (centres undefined), inactive: -13.8%.
Consider `Cc1ccccc1NC(=O)[C@H](CSCc1ccccc1)N1Cc2ccccc2C1=O`, for which the “activation” value is inactive: -6.24%.
To `COC(=O)C(NC(=O)CCc1c(C)nc2c(c(C)nn2-c2ccccc2)c1C)C(C)C` (centres undefined) belongs inactive: -13.7%; to `COc1ccc(NC(=O)Cn2c(=O)n(-c3cccc(C(F)(F)F)c3)c(=O)c3sccc32)cc1`, inactive: -24.3%.
In the case of `Cc1[nH]c2ccccc2c1C1(O)C(=O)N(Cc2ccccc2Cl)c2ccccc21` (centres undefined), the “activation” value was inactive: -14.1%.
To `CCN(CC)C(=O)C1CCN(c2nnc(C)c3c(C)n(-c4ccc(Cl)cc4)nc23)CC1` belongs inactive: 0.0013%.
To `C#CCn1c(C2CC(=O)N(c3ccc(OCC)cc3)C2)nc2ccccc21` (centres undefined) belongs inactive: -14%; to `CCCOc1ccc(CNC(=O)C2CCCN(c3nc4c(C)cc(C)cc4s3)C2)cc1` (centres undefined), inactive: -15.1%; to `O=C(NCc1ccc(F)cc1)c1cnc(N2CCCCC2)c2ccccc12`, inactive: -1.68%.
To `COc1cc(OC)cc(C(=O)Nc2ccc3nc(Nc4cccc(C(F)(F)F)c4)cc(C)c3c2)c1` belongs inactive: -10.9%.
`COc1cc(OC)c(NC(=O)N2CCc3cc(OC)c(OC)cc3C2CC(=O)O)cc1Cl` (centres undefined): the “activation” value was inactive: -10.7%.
As to `CCCCOC(=O)CSc1nnc(-c2ccc(C)cc2)o1`, the “activation” value was inactive: -1.87%.
Regarding `CC(C)c1ccc(C2c3c(-c4ccccc4O)n[nH]c3C(=O)N2Cc2ccncc2)cc1` (centres undefined), the “activation” value was inactive: -12.5%.
As for `COc1ccc(C(=O)Nc2nnc(C)s2)cc1`, the figure is inactive: -13.8%; as for `CC(C)Cn1c(=O)c2ccccc2n2c(CCC(=O)N3CCN(c4ccccc4)CC3)nnc12`, inactive: -11.7%; as for `Cc1cccc(NC(=O)c2ccc(F)c(S(=O)(=O)N3CCC4(CC3)OCCO4)c2)c1`, inactive: 0.854%.
As for `Cc1ccc(CCNC(=O)c2ccc3c(c2)N(Cc2ccccc2)C(=O)c2ccccc2S3=O)cc1` (centres undefined), the figure is inactive: 2.32%.
Take `COc1ccc(N2CCN(c3ncnc4onc(-c5ccc(F)cc5)c34)CC2)cc1`: the “activation” value is inactive: -10.1%.
As for `COc1ccc(NC(=O)Cn2c(=O)n(CCCC(=O)NCCc3ccc(C)cc3)c(=O)c3ccccc32)cc1Cl`, the figure is inactive: -9.91%; as for `O=C(CSc1nnc(-c2ccc(Cl)cc2)o1)Nc1ccc(F)cc1`, inactive: -10.3%.
As for `COc1cccc2c1Oc1ncccc1N(c1ccc(C(=O)NCc3ccccc3Cl)s1)C2`, the figure is inactive: -12.9%; as for `CC(=O)N1CCc2c(sc3c2c(=O)n(CCc2ccccc2)c(=O)n3CC(=O)Nc2ccc(C)c(F)c2)C1`, inactive: -4.3%.
To `Cc1ccc(Cl)cc1NC(c1ccc(F)cc1)c1nnc(-c2ccccc2)o1` (centres undefined) belongs inactive: 1.96%; to `Cc1ccn2c(Nc3ccc4c(c3)OCCO4)c(-c3cccs3)nc2c1`, inactive: -12.6%; to `Cc1ccc2onc(CNC(=O)Nc3cc(F)ccc3F)c2c1`, inactive: -20.5%.
`Cc1ccc2c(c1)Cc1c(nc(-c3ccc(Cl)cc3)nc1SCC(=O)N1CCCCC1)O2`: the “activation” value is inactive: -9.95%.
To `COc1ccc(Nc2cc(C)nc3c(C)c(C)ccc23)cc1` belongs inactive: -4.07%; to `CCc1ccc(C2CC(=O)c3c([nH]c(C(=O)OCCOc4ccccc4)c3C)C2)cc1` (centres undefined), inactive: -20.1%.
To `CC(C)NC[C@@H](O)COc1ccc(CC(N)=O)cc1` belongs inactive: -5.64%; to `NS(=O)(=O)c1cc2c(cc1C(F)(F)F)NCNS2(=O)=O`, inactive: 1.76%.
Turning to `Cc1cc(C)cc(NC(=O)CCCn2c3ccccc3c(=O)c3ccccc32)c1`, the “activation” value is inactive: -21.2%.
For the molecule `CC(=O)c1ccc(N2CCN(C(=O)CCCCn3c(=O)[nH]c4ccccc4c3=O)CC2)cc1`, the “activation” value is inactive: -8.58%.
Turning to `COc1ccc(Cl)cc1CNCCSc1nnnn1C`, the “activation” value is inactive: -10.3%.
To `CCOc1ccc(CNC(=O)c2cc(=O)[nH]c3ccc(S(=O)(=O)N4CCCC4)cc23)cc1` belongs inactive: -13.3%; to `CCCn1cc(S(=O)(=O)c2ccc(CC)cc2)c(=O)c2cc(F)c(N(CC)CC)cc21`, inactive: -16.2%; to `CCOc1cccc(NC(=O)CSc2ncc(-c3ccccc3)[nH]2)c1`, inactive: -7.9%.
